# Some of the results follow.
# Columns and labels:
# Assay in all cases: glycan array binding signal (z-score within array); higher = stronger binding
# Details in all cases: glycan notation: IUPAC condensed, linker removed; mutation: R343I
# [1] = biological target: Neu5Ac(a2-3)Gal6S(b1-4)[Fuc(a1-3)]GlcNAc
# Method in brief: (§1)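 The binding signal is a Z-score computed within each array. Data were drawn from 3228 arrays in the Consortium for Functional Glycomics database, restricted to those with a known protein sequence. Scores were averaged over arrays of the same protein sequence at different concentrations or buffers, and over linkers, and negative values can be taken as non-binding.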
# Neu5Ac(a2-3)GalNAc = biological target: Neu5Ac(a2-3)GalNAc
# Method in brief: as §1
# [2] = biological target: Neu5Ac(a2-3)GalNAc(b1-4)GlcNAc
# Method in brief: as §1
# [3] = biological target: Neu5Ac(a2-3)[GalNAc(b1-4)]Gal(b1-4)Glc
# Method in brief: as §1
# [4] = biological target: Neu5Ac(a2-3)[GalNAc(b1-4)]Gal(b1-4)GlcNAc
# Method in brief: as §1
# [5] = biological target: Neu5Ac(a2-3)[Neu5Ac(a2-6)]GalNAc
# Method in brief: as §1
# Neu5Ac(a2-6)Gal = biological target: Neu5Ac(a2-6)Gal
# Method in brief: as §1
# Neu5Ac(a2-6)Gal(b1-4)Glc = biological target: Neu5Ac(a2-6)Gal(b1-4)Glc
# Method in brief: as §1
# [6] = biological target: Neu5Ac(a2-6)Gal(b1-4)GlcNAc
# Method in brief: as §1
# [7] = biological target: Neu5Ac(a2-6)Gal(b1-4)GlcNAc(b1-2)Man(a1-3)[Gal(b1-4)GlcNAc(b1-2)Man(a1-6)]Man(b1-4)GlcNAc(b1-4)GlcNAc
# Method in brief: as §1
# [8] = biological target: Neu5Ac(a2-6)Gal(b1-4)GlcNAc(b1-2)Man(a1-3)[GlcNAc(b1-2)Man(a1-6)]Man(b1-4)GlcNAc(b1-4)GlcNAc
# Method in brief: as §1
# [9] = biological target: Neu5Ac(a2-6)Gal(b1-4)GlcNAc(b1-2)Man(a1-3)[GlcNAc(b1-2)Man(b1-4)GlcNAc(b1-2)Man(a1-6)]Man(b1-4)GlcNAc(b1-4)GlcNAc
# Method in brief: as §1
# [10] = biological target: Neu5Ac(a2-6)Gal(b1-4)GlcNAc(b1-2)Man(a1-3)[Neu5Ac(a2-6)Gal(b1-4)GlcNAc(b1-2)Man(a1-6)]Man(b1-4)GlcNAc(b1-4)GlcNAc
# Method in brief: as §1
# [11] = biological target: Neu5Ac(a2-6)Gal(b1-4)GlcNAc(b1-2)Man(a1-6)[Gal(b1-4)GlcNAc(b1-2)Man(a1-3)]Man(b1-4)GlcNAc(b1-4)GlcNAc
# Method in brief: as §1
# [12] = biological target: Neu5Ac(a2-6)Gal(b1-4)GlcNAc(b1-2)Man(a1-6)[GlcNAc(b1-2)Man(a1-3)]Man(b1-4)GlcNAc(b1-4)GlcNAc
# Method in brief: as §1
# [13] = biological target: Neu5Ac(a2-6)Gal(b1-4)GlcNAc(b1-3)Gal(b1-4)GlcNAc
# Method in brief: as §1
# [14] = biological target: Neu5Ac(a2-6)Gal(b1-4)GlcNAc(b1-3)Gal(b1-4)[Fuc(a1-3)]GlcNAc(b1-3)Gal(b1-4)[Fuc(a1-3)]GlcNAc
# Method in brief: as §1
# [15] = biological target: Neu5Ac(a2-6)Gal(b1-4)GlcNAc6S
# Method in brief: as §1
# Neu5Ac(a2-6)GalNAc = biological target: Neu5Ac(a2-6)GalNAc
# Method in brief: as §1
# [16] = biological target: Neu5Ac(a2-6)GalNAc(b1-4)GlcNAc
# Method in brief: as §1
# Neu5Ac(a2-8)Neu5Ac = biological target: Neu5Ac(a2-8)Neu5Ac
# Method in brief: as §1
# [17] = biological target: Neu5Ac(a2-8)Neu5Ac(a2-3)Gal(b1-4)Glc
# Method in brief: as §1
# [18] = biological target: Neu5Ac(a2-8)Neu5Ac(a2-3)[GalNAc(b1-4)]Gal(b1-4)Glc
# Method in brief: as §1
# [19] = biological target: Neu5Ac(a2-8)Neu5Ac(a2-8)Neu5Ac
# Method in brief: as §1
# [20] = biological target: Neu5Ac(a2-8)Neu5Ac(a2-8)Neu5Ac(a2-3)Gal(b1-4)Glc
# Method in brief: as §1
# [21] = biological target: Neu5Ac(a2-8)Neu5Ac(a2-8)Neu5Ac(a2-3)[GalNAc(b1-4)]Gal(b1-4)Glc
# Method in brief: as §1
# [22] = biological target: Neu5Ac(a2-8)Neu5Ac(a2-8)Neu5Ac(a2-8)Neu5Ac(a2-3)[GalNAc(b1-4)]Gal(b1-4)Glc
# Method in brief: as §1
# [23] = biological target: Neu5Ac(b2-6)Gal(b1-4)GlcNAc
# Method in brief: as §1
# Neu5Ac(b2-6)GalNAc = biological target: Neu5Ac(b2-6)GalNAc
# Method in brief: as §1
# [24] = biological target: Neu5Ac9Ac(a2-6)Gal(b1-4)GlcNAc
# Method in brief: as §1
# [25] = biological target: Neu5Gc(a2-3)Gal(b1-3)GlcNAc
# Method in brief: as §1
# [26] = biological target: Neu5Gc(a2-3)Gal(b1-3)[Fuc(a1-4)]GlcNAc
# Method in brief: as §1
# Neu5Gc(a2-3)Gal(b1-4)Glc = biological target: Neu5Gc(a2-3)Gal(b1-4)Glc
# Method in brief: as §1
# [27] = biological target: Neu5Gc(a2-3)Gal(b1-4)GlcNAc
# Method in brief: as §1
# [28] = biological target: Neu5Gc(a2-3)Gal(b1-4)[Fuc(a1-3)]GlcNAc
# Method in brief: as §1
# [29] = biological target: Neu5Gc(a2-6)Gal(b1-4)GlcNAc
# Method in brief: as §1
# Neu5Gc(a2-6)GalNAc = biological target: Neu5Gc(a2-6)GalNAc
# Method in brief: as §1
# [30] = biological target: Neu5Gc(b2-6)Gal(b1-4)GlcNAc
# Method in brief: as §1
binder,measurement,setting,value
Surfactant Protein D (Human); Neck + Carbohydrate Recognition Domain (NCRD) (Homo sapiens) (protein) MLLFLLSALVLLTQPLGYLEAEMKTYSHRTMPSACTLVMCSSVESGLPGRDRDGREGPRGEKGDPGLPGAAGQAGMPGQAGPVGPKGDNGSVGEPGPKGDTGPSGPPGPPGVPGPAGREGALGKQGNIGPQGKPGPKGEAGPKGEVGAPGMQGSAGARGLAGPKGERGVPGERGVPGNTGAAGSAGAMGPQGSPGARGPPGLKGDKGIPGDKGAKGESGLPDVASLRQQVEALQGQVQHLQAAFSQYKKVELFPNGQSVGEKIFKTAQFVKPFTEAQLLCTQAGGQLASPRSAAENAALQQLVVAKNEAAFLSMTDSKTEGKFTYPTGESLVYSNWAPGEPNDDGGSEDCVEIFTNGKWNDIACGEKRLVVCEF,glycan array binding signal (z-score),[1],-0.27
same,glycan array binding signal (z-score),Neu5Ac(a2-3)GalNAc,-0.278
same,glycan array binding signal (z-score),[2],-0.276
same,glycan array binding signal (z-score),[3],-0.276
same,glycan array binding signal (z-score),[4],-0.265
same,glycan array binding signal (z-score),[5],-0.275
same,glycan array binding signal (z-score),Neu5Ac(a2-6)Gal,-0.27
same,glycan array binding signal (z-score),Neu5Ac(a2-6)Gal(b1-4)Glc,-0.274
same,glycan array binding signal (z-score),[6],-0.275
same,glycan array binding signal (z-score),[7],-0.269
same,glycan array binding signal (z-score),[8],-0.257
same,glycan array binding signal (z-score),[9],-0.274
same,glycan array binding signal (z-score),[10],-0.268
same,glycan array binding signal (z-score),[11],-0.272
same,glycan array binding signal (z-score),[12],1.83
same,glycan array binding signal (z-score),[13],-0.275
same,glycan array binding signal (z-score),[14],-0.203
same,glycan array binding signal (z-score),[15],-0.275
same,glycan array binding signal (z-score),Neu5Ac(a2-6)GalNAc,-0.269
same,glycan array binding signal (z-score),[16],-0.278
same,glycan array binding signal (z-score),Neu5Ac(a2-8)Neu5Ac,-0.269
same,glycan array binding signal (z-score),[17],-0.267
same,glycan array binding signal (z-score),[18],-0.27
same,glycan array binding signal (z-score),[19],-0.27
same,glycan array binding signal (z-score),[20],-0.276
same,glycan array binding signal (z-score),[21],-0.271
same,glycan array binding signal (z-score),[22],-0.253
same,glycan array binding signal (z-score),[23],-0.268
same,glycan array binding signal (z-score),Neu5Ac(b2-6)GalNAc,-0.275
same,glycan array binding signal (z-score),[24],-0.269
same,glycan array binding signal (z-score),[25],-0.272
same,glycan array binding signal (z-score),[26],-0.278
same,glycan array binding signal (z-score),Neu5Gc(a2-3)Gal(b1-4)Glc,-0.275
same,glycan array binding signal (z-score),[27],-0.267
same,glycan array binding signal (z-score),[28],-0.277
same,glycan array binding signal (z-score),[29],-0.276
same,glycan array binding signal (z-score),Neu5Gc(a2-6)GalNAc,-0.264
same,glycan array binding signal (z-score),[30],-0.26

# Source: the supplement of paper PMC8728848
